Measured values published in the supplement of paper PMC12217912.
Some of the results follow. The full chains were built here from the parent and the listed change. Values near 0.05 are background.

B1: TEV protease; numbered along this chain (parent)
chain: MGESLFKGPRDYNPISSSICHLTNESDGHTTSLYGIGFGPFIITNKHLFRRNNGTLVVQSLHGVFKVKDTTTLQQHLVDGRDMIIIRMPKDFPPFPQKLKFREPQREERICLVTTNFQTKSMSSMVSDTSCTFPSGDGIFWKHWIQTKDGQCGSPLVSTRDGFIVGIHSASNFTNTNNYFTSVPKNFMELLTNQEAQQWVSGWRLNADSVLWGGHKVFMVKPEEPFQPVKEATQL

Variants of: B1
Test: raw area under fraction-flipped curve 0-4 h after induction (AUC4h, not background-subtracted), DNA-recorder readout of cleavage of the substrate (dimensionless); higher = more cleavage of the substrate by the protease variant
Settings: temperature: 34 °C; time window: 0-4 h after rhamnose induction
Method: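 In vivo DNA recorder in E. coli TOP10(DE3) ΔrhaA at 34 °C. Each TEVp single-site mutant (parent TEVp 0) is paired with a single-site variant of the 7-mer TEVs (canonical ENLYFQ|S). The substrate sits between flexible linkers in a Bxb1-sfGFP-TEVs-SsrA fusion, so cleavage stabilises Bxb1 and speeds flipping of a recombination array, read by NGS. The value is the raw area under the fraction-flipped curve over 0-4 h after rhamnose induction (AUC4h), with ≥20 reads per time point. It is not background-subtracted; inactive controls average about 0.047.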
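Note: Bxb1 expression induced with 0.2% (w/v) L-rhamnose at OD600 near 0.5, cultures sampled hourly, flipped fraction per protease–substrate barcode pair counted by paired-end Illumina sequencing.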

Which results are given for MGESLFKGPRDYNPISSSICHLTNESDGHTTSLYGIGFGPFIITNKHLFRRNNGTLVVQSLHGVFKVKDTTTLQQHLVDGRDMIIIRMPKDFPPFPIKLKFREPQREERICLVTTNFQTKSMSSMVSDTSCTFPSGDGIFWKHWIQTKDGQCGSPLVSTRDGFIVGIHSASNFTNTNNYFTSVPKNFMELLTNQEAQQWVSGWRLNADSVLWGGHKVFMVKPEEPFQPVKEATQL [Q97I]?
area with substrate EALYFQS: 0.121; area with substrate EDLYFQS: 0.101; area with substrate EELYFQS: 0.137; area with substrate EGLYFQS: 0.0848; area with substrate EKLYFQS: 0.105; area with substrate ELLYFQS: 0.133; area with substrate ERLYFQS: 0.0868; area with substrate ESLYFQS: 0.109; area with substrate EYLYFQS: 0.0937

With MGESLFKGPRDYNPISSSICHLTNESDGHTTSLYGIGFGPFIITNKHLFRRNNGTLVVQSLHGVFKVKDTTTLQQHLVDGRDMIIKRMPKDFPPFPQKLKFREPQREERICLVTTNFQTKSMSSMVSDTSCTFPSGDGIFWKHWIQTKDGQCGSPLVSTRDGFIVGIHSASNFTNTNNYFTSVPKNFMELLTNQEAQQWVSGWRLNADSVLWGGHKVFMVKPEEPFQPVKEATQL [I86K] as the variant, how does the “area with substrate EALYFQS” value read?
Its value is 0.0572.

And the “area with substrate EDLYFQS” value?
The value was 0.0413.

What about the “area with substrate EHLYFQS” value of the same variant?
Its value is 0.0316.

And the “area with substrate EILYFQS” value?
Its value is 0.0266.

And the “area with substrate ELLYFQS” value?
Its value is 0.056.

And the “area with substrate EMLYFQS” value?
Its value is 0.0345.

And the “area with substrate EQLYFQS” value?
The value was 0.0389.

What about the “area with substrate ESLYFQS” value of the same variant?
Its value is 0.0294.

And the “area with substrate EVLYFQS” value?
The value was 0.0368.

What about the “area with substrate EYLYFQS” value of the same variant?
The value was 0.0533.

Which results are given for MGESLFKGPRDYNPISSSICHLTNESDGHTTSLYGIGFGPFIITNKHLFRRNNGTLVVQSLHGVFKVKDTTTLQQHLVDGRQMIIIRMPKDFPPFPQKLKFREPQREERICLVTTNFQTKSMSSMVSDTSCTFPSGDGIFWKHWIQTKDGQCGSPLVSTRDGFIVGIHSASNFTNTNNYFTSVPKNFMELLTNQEAQQWVSGWRLNADSVLWGGHKVFMVKPEEPFQPVKEATQL [D82Q]?
area with substrate EALYFQS: 0.0593; area with substrate ECLYFQS: 0.0617; area with substrate EDLYFQS: 0.0404; area with substrate EELYFQS: 0.0616; area with substrate EILYFQS: 0.053; area with substrate ELLYFQS: 0.0803; area with substrate EMLYFQS: 0.0381; area with substrate EPLYFQS: 0.062; area with substrate EQLYFQS: 0.0713; area with substrate ERLYFQS: 0.0641; area with substrate ESLYFQS: 0.0701; area with substrate EVLYFQS: 0.0636; area with substrate EWLYFQS: 0.0507

Which “area with substrate EALYFQS” value does the source give for MGESLFKGPRDYNPISSSICHLTNESDGHTTSLYGIGFGPFIITNKHLFRRNNGTLVVQSLHGVFKVKDTTTLQQHLVDGRFMIIIRMPKDFPPFPQKLKFREPQREERICLVTTNFQTKSMSSMVSDTSCTFPSGDGIFWKHWIQTKDGQCGSPLVSTRDGFIVGIHSASNFTNTNNYFTSVPKNFMELLTNQEAQQWVSGWRLNADSVLWGGHKVFMVKPEEPFQPVKEATQL [D82F] here?
Its value is 0.077.

And the “area with substrate ECLYFQS” value?
Its value is 0.0493.

And the “area with substrate EDLYFQS” value?
Its value is 0.0469.

What about the “area with substrate EELYFQS” value of the same variant?
The value was 0.0581.

And the “area with substrate EGLYFQS” value?
Its value is 0.059.

What about the “area with substrate EHLYFQS” value of the same variant?
The value was 0.0437.

And the “area with substrate EILYFQS” value?
Its value is 0.0573.

What about the “area with substrate EKLYFQS” value of the same variant?
Its value is 0.0665.

What about the “area with substrate ELLYFQS” value of the same variant?
The value was 0.0593.

What about the “area with substrate EPLYFQS” value of the same variant?
The value was 0.0586.

What about the “area with substrate EQLYFQS” value of the same variant?
The value was 0.0486.

And the “area with substrate ERLYFQS” value?
Its value is 0.0459.

What about the “area with substrate ESLYFQS” value of the same variant?
Its value is 0.0486.

What about the “area with substrate EWLYFQS” value of the same variant?
Its value is 0.0497.

Which “area with substrate EALYFQS” value does the source give for MGESLFKGPRDYNPISSSICHLTNESDGHTTSLYGIGFGPFIITNKHLFRRNNGTLVVQSLHGVFKVKDTTTLQQHLVDGRDMIIIRMPKDFPPFPQKLKFDEPQREERICLVTTNFQTKSMSSMVSDTSCTFPSGDGIFWKHWIQTKDGQCGSPLVSTRDGFIVGIHSASNFTNTNNYFTSVPKNFMELLTNQEAQQWVSGWRLNADSVLWGGHKVFMVKPEEPFQPVKEATQL [R102D] here?
Its value is 0.0517.

What about the “area with substrate EDLYFQS” value of the same variant?
Its value is 0.0462.

What about the “area with substrate EGLYFQS” value of the same variant?
The value was 0.0633.

What about the “area with substrate EHLYFQS” value of the same variant?
The value was 0.131.

And the “area with substrate EMLYFQS” value?
Its value is 0.0527.

And the “area with substrate EQLYFQS” value?
The value was 0.0502.

What about the “area with substrate ERLYFQS” value of the same variant?
Its value is 0.0686.

And the “area with substrate ESLYFQS” value?
The value was 0.0535.

What about the “area with substrate ETLYFQS” value of the same variant?
The value was 0.0474.
